# From the supplement of paper PMC12217912
# This is one part of the list. The full chains were built here from the parent and the listed change. Inactive controls read about 0.05.
# B1: TEV protease; numbered along this chain (parent)
# chain: MGESLFKGPRDYNPISSSICHLTNESDGHTTSLYGIGFGPFIITNKHLFRRNNGTLVVQSLHGVFKVKDTTTLQQHLVDGRDMIIIRMPKDFPPFPQKLKFREPQREERICLVTTNFQTKSMSSMVSDTSCTFPSGDGIFWKHWIQTKDGQCGSPLVSTRDGFIVGIHSASNFTNTNNYFTSVPKNFMELLTNQEAQQWVSGWRLNADSVLWGGHKVFMVKPEEPFQPVKEATQL
# Variants of: B1
# Test: raw area under fraction-flipped curve 0-4 h after induction (AUC4h, not background-subtracted), DNA-recorder readout of cleavage of the substrate (dimensionless); higher = more cleavage of the substrate by the protease variant
# Conditions: temperature: 34 °C; time window: 0-4 h after rhamnose induction
# 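Further: Bxb1 expression induced with 0.2% (w/v) L-rhamnose at OD600 near 0.5, cultures sampled hourly, flipped fraction per protease–substrate barcode pair counted by paired-end Illumina sequencing.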
Variant,area with substrate INLYFQS,area with substrate LNLYFQS,area with substrate WNLYFQS,area with substrate NNLYFQS,area with substrate RNLYFQS,area with substrate HNLYFQS,area with substrate PNLYFQS,area with substrate SNLYFQS,area with substrate VNLYFQS,area with substrate YNLYFQS
MGESLFKGPRDYNPISSSICHLTNESDGHTTSLYGIGFGPFIITNKHLFRRNNGTLVVQSLHGVFKVKDTTTLQQHLVQGRDMIIIRMPKDFPPFPQKLKFREPQREERICLVTTNFQTKSMSSMVSDTSCTFPSGDGIFWKHWIQTKDGQCGSPLVSTRDGFIVGIHSASNFTNTNNYFTSVPKNFMELLTNQEAQQWVSGWRLNADSVLWGGHKVFMVKPEEPFQPVKEATQL [D79Q],0.0592,0.0641,0.0643,–,–,–,–,–,–,–
MGESLFKGPRDYNPISSSICHLTNESDGHTTSLYGIGFGPFIITNKHLFRRNNGTLVVQSLHGVFKVKDTTTLQQHLVEGRDMIIIRMPKDFPPFPQKLKFREPQREERICLVTTNFQTKSMSSMVSDTSCTFPSGDGIFWKHWIQTKDGQCGSPLVSTRDGFIVGIHSASNFTNTNNYFTSVPKNFMELLTNQEAQQWVSGWRLNADSVLWGGHKVFMVKPEEPFQPVKEATQL [D79E],0.0488,–,0.0618,0.0494,0.0424,–,–,–,–,–
MGESLFKGPRDYNPISSSICHLTNESDGHTTSLYGIGFGPFIITNKHLFRRNNGTLVVQSLHGVFKVKDTTTLQQHLVDGRDMIIIRMPKDFPPFPQKLKFREPQREERICLVTTNFQTKSMSSMVSDTSCTFPSGDGIFWKHWIQTKDGQCGSPLVSTRDGFIVGIHSASNFTNTNNYFTSVPKNFMELLTNQEAQQWVSGWRLNADSVLWGGHKVFMVKPEEPFQPVKEATQC [L235C],0.0672,–,–,0.0536,–,0.0649,0.0643,0.0673,0.0668,0.0619
MGESLFKGPRDYNPISSSICHLTNESDGHTTSLYGIGFGPFIITNKHLFRRNNGTLVVQSLHGVFKVKDTTTLQQHLVDGRDMIIIRMPKDFPPFPQKLKFREPQREERICLVTTNFQTKSMSSMVSDTSCTFPSGDGIFWKHWIQTKDGQCGSPLVSTRDGFIVGIHSASNFTNTNNYFTSVPKNFMELLTNQEAQQWVSGWRLNADSVLWGGHKVFMVKPEEPFQPVKEATQF [L235F],–,–,–,–,–,0.0543,0.0576,–,–,–
MGESLFKGPRDYNPISSSICHLTNESDGHTTSLYGIGFGPFIITNKHLFRRNNGTLVVQSLHGVFKVKDTTTLQQHLVDGRDMIIIRMPKDFPPFPQKLKFREPQREERICLVTTNFQTKSMSSMVSDTSCTFPSGDGIFWKHWIQTKDGQCQSPLVSTRDGFIVGIHSASNFTNTNNYFTSVPKNFMELLTNQEAQQWVSGWRLNADSVLWGGHKVFMVKPEEPFQPVKEATQL [G153Q],0.0695,–,–,0.0302,–,–,–,–,–,–
MGESLFKGPRDYNPISSSICHLTNESDGHTTSLYGIGFGPFIITNKHLFRRNNGTLVVQSLHGVFKVKDTTTLQQHLVDGRDMIIIRMPKDFPPFPQKIKFREPQREERICLVTTNFQTKSMSSMVSDTSCTFPSGDGIFWKHWIQTKDGQCGSPLVSTRDGFIVGIHSASNFTNTNNYFTSVPKNFMELLTNQEAQQWVSGWRLNADSVLWGGHKVFMVKPEEPFQPVKEATQL [L99I],0.0584,–,–,–,–,–,0.067,0.0745,–,0.0454
MGESLFKGPRDYNPISSSICHLTNESDGHTTSLYGIGFGPFIITNKHLFRRNNGTLVVQSLHGVFKVKDTTTLQQHLVDGRDMIIIRMPKDFPPFPQKLKEREPQREERICLVTTNFQTKSMSSMVSDTSCTFPSGDGIFWKHWIQTKDGQCGSPLVSTRDGFIVGIHSASNFTNTNNYFTSVPKNFMELLTNQEAQQWVSGWRLNADSVLWGGHKVFMVKPEEPFQPVKEATQL [F101E],0.0507,0.0954,–,–,–,–,–,–,–,0.0467
MGESLFKGPRDYNPISSSICHLTNESDGHTTSLYGIGFGPFIITNKHLFRRNNGTLVVQSLHGVFKVKDTTTLQQHLVDGRDMIIIRMPKDFPPFPQKLKFREPQREERICLVTTNFQTKSMSGMVSDTSCTFPSGDGIFWKHWIQTKDGQCGSPLVSTRDGFIVGIHSASNFTNTNNYFTSVPKNFMELLTNQEAQQWVSGWRLNADSVLWGGHKVFMVKPEEPFQPVKEATQL [S124G],0.0569,–,–,0.0607,–,–,–,0.0664,–,–
MGESLFKGPRDYNPISSSICHLTNESDGHTTSLYGIGFGPFIITNKHLFRRNNGTLVVQSLHGVFKVKDTTTLQQHLVDGRDMIIIRMPKTFPPFPQKLKFREPQREERICLVTTNFQTKSMSSMVSDTSCTFPSGDGIFWKHWIQTKDGQCGSPLVSTRDGFIVGIHSASNFTNTNNYFTSVPKNFMELLTNQEAQQWVSGWRLNADSVLWGGHKVFMVKPEEPFQPVKEATQL [D91T],0.0636,–,–,–,–,–,0.0595,–,–,0.0542
MGESLFKGPRDYNPISSSICHLTNESDGHTTSLYGIGFGPFIITNKHLFRRNNGTLVVQSLHGVFKVKDTTTLQQHLVDGRDMIIIRMPKDFPPFPQKLKFREPQREERICLVTTNFQTKSMSSMVSDTSCTFPSGDGIFWKHWIQTKDGQCGSPLVSTRDGFIVGIHSASNFTNTNNYFTSVPKNFMEFLTNQEAQQWVSGWRLNADSVLWGGHKVFMVKPEEPFQPVKEATQL [L190F],0.0751,–,–,0.0716,–,–,–,–,–,0.0654
MGESLFKGPRDYNPISSSICHLTNESDGHTTSLYGIGFGPFIITNKHLFRRNNGTLVVQSLHGVFKVKDTTTLQQHLVDGRDMIIIRMPKDFPPFPQKLKFNEPQREERICLVTTNFQTKSMSSMVSDTSCTFPSGDGIFWKHWIQTKDGQCGSPLVSTRDGFIVGIHSASNFTNTNNYFTSVPKNFMELLTNQEAQQWVSGWRLNADSVLWGGHKVFMVKPEEPFQPVKEATQL [R102N],0.0449,–,–,–,–,–,–,0.0489,–,–

# Same assay, conditions: temperature: 34 °C; time window: 0-4 h after rhamnose induction
Variant,area with substrate TNLYFQS,area with substrate KNLYFQS,area with substrate MNLYFQS
MGESLFKGPRDYNPISSSICHLTNESDGHTTSLYGIGFGPFIITNKHLFRRNNGTLVVQSLHGVFKVKDTTTLQQHLVDGRDMIIIRMPKDFPPFPQKLKFREPQREERICLVTTNFQTKSMSSMVSDTSCTFPSGDGIFWKHWIQTKDGQCGSPLVSTRDGFIVGIHSASNFTNTNNYFTSVPKNFMELLTNQEAQQWVSGWRLNADSVLWGGHKVFMVKPEEPFQPVKEATQF [L235F],0.0792,–,–
MGESLFKGPRDYNPISSSICHLTNESDGHTTSLYGIGFGPFIITNKHLFRRNNGTLVVQSLHGVFKVKDTTTLQQHLVDGRDMIIIRMPKDFPPFPQKLKFREPQREERICLVTTNFQTKSMSSMVSDTSCTFPSGDGIFWKHWIQTKDGQCQSPLVSTRDGFIVGIHSASNFTNTNNYFTSVPKNFMELLTNQEAQQWVSGWRLNADSVLWGGHKVFMVKPEEPFQPVKEATQL [G153Q],0.0301,–,–
MGESLFKGPRDYNPISSSICHLTNESDGHTTSLYGIGFGPFIITNKHLFRRNNGTLVVQSLHGVFKVKDTTTLQQHLVDGRDMIIIRMPKDFPPFPQKIKFREPQREERICLVTTNFQTKSMSSMVSDTSCTFPSGDGIFWKHWIQTKDGQCGSPLVSTRDGFIVGIHSASNFTNTNNYFTSVPKNFMELLTNQEAQQWVSGWRLNADSVLWGGHKVFMVKPEEPFQPVKEATQL [L99I],–,0.0741,–
MGESLFKGPRDYNPISSSICHLTNESDGHTTSLYGIGFGPFIITNKHLFRRNNGTLVVQSLHGVFKVKDTTTLQQHLVDGRDMIIIRMPKDFPPFPQKLKEREPQREERICLVTTNFQTKSMSSMVSDTSCTFPSGDGIFWKHWIQTKDGQCGSPLVSTRDGFIVGIHSASNFTNTNNYFTSVPKNFMELLTNQEAQQWVSGWRLNADSVLWGGHKVFMVKPEEPFQPVKEATQL [F101E],0.048,0.0546,–
MGESLFKGPRDYNPISSSICHLTNESDGHTTSLYGIGFGPFIITNKHLFRRNNGTLVVQSLHGVFKVKDTTTLQQHLVDGRDMIIIRMPKTFPPFPQKLKFREPQREERICLVTTNFQTKSMSSMVSDTSCTFPSGDGIFWKHWIQTKDGQCGSPLVSTRDGFIVGIHSASNFTNTNNYFTSVPKNFMELLTNQEAQQWVSGWRLNADSVLWGGHKVFMVKPEEPFQPVKEATQL [D91T],–,–,0.0633
MGESLFKGPRDYNPISSSICHLTNESDGHTTSLYGIGFGPFIITNKHLFRRNNGTLVVQSLHGVFKVKDTTTLQQHLVDGRDMIIIRMPKDFPPFPQKLKFREPQREERICLVTTNFQTKSMSSMVSDTSCTFPSGDGIFWKHWIQTKDGQCGSPLVSTRDGFIVGIHSASNFTNTNNYFTSVPKNFMEFLTNQEAQQWVSGWRLNADSVLWGGHKVFMVKPEEPFQPVKEATQL [L190F],0.0662,–,0.0572
MGESLFKGPRDYNPISSSICHLTNESDGHTTSLYGIGFGPFIITNKHLFRRNNGTLVVQSLHGVFKVKDTTTLQQHLVDGRDMIIIRMPKDFPPFPQKLKFNEPQREERICLVTTNFQTKSMSSMVSDTSCTFPSGDGIFWKHWIQTKDGQCGSPLVSTRDGFIVGIHSASNFTNTNNYFTSVPKNFMELLTNQEAQQWVSGWRLNADSVLWGGHKVFMVKPEEPFQPVKEATQL [R102N],–,–,0.0547
